# Laboratory results as given in ChEMBL document CHEMBL1201862, “PubChem BioAssay data set” (2004).
# Values joined by “and” are separate entries in the source; they are usually repeats but may differ in a detail not shown here. Equal entries are not always repeated.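 Exposure lasted 48 hours, with cells grown in 96-well plates and compounds tested at five concentrations. GI50 is the concentration that inhibits growth by half.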 Active and inactive are the calls of the source. No stated cut-off is given here; in the data, active = GI50 up to about 1.1 µM and inactive = higher.
# Test system: NCI-H322M
# Assay: DTP human tumour cell line panel, 48 h
row,SMILES,GI50
1,Cc1ccc(S(=O)(=O)NCc2cccc([N+](=O)[O-])c2)cc1,inactive: > 100 µM
2,OC1COC(OCc2ccccc2)C(O)C1O (configuration not stated),inactive: > 100 µM
3,N=C(N)N/N=C/c1c(-c2cc([N+](=O)[O-])c(Cl)cc2Cl)nc2sccn12,active: 1.08 µM and inactive: 1.57 µM
4,CCOc1cc(C2SCC(=O)N2c2nc3cc4sc(N5C(=O)CSC5c5ccc(O)c(OCC)c5)nc4cc3s2)ccc1O (configuration not stated),inactive: 69 µM
5,CCOC1=C2N=C(C(CC)c3ccccc3F)N=C2C(=O)c2ccccc21 (configuration not stated),inactive: > 100 µM
6,CC(=O)O[C@H]1[C@@H](N2CCOCC2)C[C@H]2[C@@H]3CC=C4C[C@@H](N5CCCC5)CC[C@]4(C)[C@H]3CC[C@@]21C,inactive: > 100 µM
7,CCOC(=O)c1cccnc1C(OC(C)=O)OC(C)=O,inactive: > 100 µM
8,C=CCc1cc(OC)c(O)c(C(=O)/C=C/c2ccc(OC)c(OC)c2)c1,inactive: 15.2 µM
9,CC1=NC(=Cc2cc(Br)cc(Br)c2)C(=O)N1n1c(-c2ccccc2)nc2ccccc2c1=O,inactive: > 100 µM
10,C[C@]12CCC3=NCCN3C1=CC[C@@H]1[C@@H]2CC[C@@]2(C)[C@H]1CC[C@]2(C)O,inactive: > 100 µM
11,OC1=CN=COc2ccccc21,inactive: > 100 µM
12,CCOC(=O)c1cc2cc(N(C(C)=O)C(C)=O)ccc2s1,inactive: 27.3 µM
13,[O-][S+]1CSCS1 (configuration not stated),inactive: > 100 µM
14,O=C1OC(CC(=O)c2ccc(Cl)cc2)C(Cl)=C1Cl (configuration not stated),inactive: > 100 µM
15,COC(=O)C1=NN2c3ccccc3CN([C@@H](C)c3ccccc3)C(=O)[C@@H]2C1,inactive: > 100 µM
16,O=C1OC(O)c2cc3c(cc21)OCO3 (configuration not stated),inactive: > 100 µM
17,CC(Oc1ccc(Cl)cc1Cl)C(=O)NN1C(=O)CSC1c1ccc(Cl)cc1 (configuration not stated),inactive: 47.8 µM
18,COC(=O)C1=C(C(=O)OC)C(C(=O)c2ccc(Br)cc2)N2N=C(c3ccc(Cl)cc3)C=CC12 (configuration not stated),inactive: > 100 µM
19,CC(C)C1=CC(=O)C(C)(C2=NC(C)(C)CO2)c2ccccc21 (configuration not stated),inactive: > 100 µM
20,O=C1c2ccccc2C(=O)N1/N=C\c1ccc(Br)cc1,inactive: > 10 µM
21,CC(C)OP(=O)(OC(C)C)C1=NN(c2ccc([N+](=O)[O-])cc2)C(P(=O)(OC(C)C)OC(C)C)=NN1c1ccc([N+](=O)[O-])cc1,inactive: > 100 µM
22,NC(=O)CN1CCN(c2nc(N3CCCC3)c3nc(Cl)c(NCc4ccccc4)nc3n2)CC1,inactive: 12.4 µM
23,Cc1ccc(N)c(S)c1,inactive: 23.8 µM

row,SMILES,GI50
1,NNC(=S)N/N=C(/C(=O)Nc1cc(Cl)ccc1Cl)C1C(=O)Nc2ccccc2[S+]1[O-] (configuration not stated),inactive: > 100 µM
2,Clc1ccc(Cc2nc3cc(Cl)ccc3o2)cc1,inactive: 57.3 µM
3,CCCCCCCCOCC1S(=O)(=O)OCCOS1(=O)=O,inactive: > 100 µM
4,C[C@]12CC/C(=N\OCCN3CCCCC3)C=C1CCC1C2CC[C@@]2(C)C1CC[C@]2(C)O (some centres not stated),inactive: 11 µM
5,CC(C)(C)C1CCC2(CC1)CCN(CCCN1CCOCC1)CC2,inactive: > 54 µM
6,COc1ccc2c(c1)CCc1cc(C(N)=O)c3nnnn3c1-2,inactive: > 100 µM
7,O=C(Nc1nc2ncn(CCOC(=O)c3ccccc3)c2c(=O)[nH]1)c1ccccc1,inactive: > 57 µM
8,CCc1cccc(CC)c1Nc1nc(-c2ccccc2-c2ccccc2)cs1,inactive: > 100 µM
9,CCOC(=O)c1ccc(C(=O)OCC)n1-c1cc2cc(c1)CSCc1cc(cc(-n3c(C(=O)OCC)ccc3C(=O)OCC)c1)CSC2,inactive: > 10 µM
10,Cc1ccc(S(=O)(=O)N2CC3OC(C)(C)OC3C2CO)cc1 (configuration not stated),inactive: > 100 µM
11,CSc1ccc(/C=C2\N=C(c3ccccc3)N(NC(=O)c3c(Cl)c(Cl)c(Cl)c(Cl)c3-c3nc4ccccc4[nH]3)C2=O)cc1,inactive: 39.9 µM
12,N#CC1(C#N)C(=O)c2ccncc2C1=O,inactive: > 100 µM
13,CCOP(=O)(/C=C\n1cc(C)c(=O)[nH]c1=O)OCC,inactive: > 100 µM
14,CCN(CC)c1cccc2c1C1(O)CCC3(CC21)OCCCCO3 (configuration not stated),inactive: > 100 µM
15,C=C(CN(CC(=C)C(=O)c1ccccc1)C(C)(C)C)C(=O)c1ccccc1,inactive: 34.4 µM
16,Cn1c2cc(O)cc(O)c2c(=O)c2c([N+](=O)[O-])cccc21,inactive: > 100 µM
17,CCOC(=O)/C(C(=O)Nc1cccc(Cl)c1)=C(/N)N1CCCC1,inactive: > 100 µM
18,COc1ccc(C(=O)C(Br)C(Br)C(=O)O)cc1 (configuration not stated),inactive: 34 µM
19,Nc1nc(NNc2ccccc2F)cc(=O)[nH]1,inactive: > 100 µM
20,C=Cc1ccccc1C1(O)C=CC(OC)(OC)C=C1,inactive: 11.5 µM
21,CN(C)CCNC(=O)c1cccc2ccc(-c3ccc(F)cc3)nc12,inactive: 5 µM
22,CCOP(=O)(C/C(=N/NC(C)(C)C)C(=O)Nc1nc2ccc(C)cc2s1)OCC,inactive: > 100 µM
23,O/N=C\c1c2c(cc3c1CCC3)CCC2,inactive: > 100 µM

row,SMILES,GI50
1,CC(=O)N1c2ccccc2C(C)C1c1[nH]c2ccccc2c1C (configuration not stated),inactive: 23.2 µM
2,COC(=O)C1CSC(c2csc(CCN)n2)=N1 (configuration not stated),inactive: > 100 µM
3,O=[PH]1c2ccccc2Nc2ccccc21,inactive: > 100 µM
4,COc1cc([C@@H]2c3cc4c(cc3[C@@H](OC(=O)c3ccc(N)cc3)C3COC(=O)[C@@H]32)OCO4)cc(OC)c1O (some centres not stated),inactive: 6.75 µM
5,Cc1ccc(S(=O)(=O)c2ccc(N)cc2)cc1,inactive: > 100 µM
6,COc1cc(/C=N/c2ccc(Oc3ccc(Cl)cc3)c(Cl)c2)cc(OC)c1OC,inactive: 20 µM
7,Cc1ccc(NC(=O)CCC(=O)C2Cc3ccccc3C2=O)cc1C (configuration not stated),inactive: > 100 µM
8,N=C1OC(c2ccc3c(c2)OCO3)C(NNS(=O)(=O)c2ccccc2)=C1O (configuration not stated),inactive: > 100 µM
9,C/C(CC(=O)Nc1cc(C)ccc1C)=N/N=C(N)N,inactive: > 100 µM
10,CCOC(=O)c1cc(=O)n(C)c(=O)n1C,inactive: > 100 µM
11,COC(=O)c1ccccc1C1CN=NC12Cc1cccc(C)c1C2=O (configuration not stated),inactive: > 100 µM
12,C=C[C@@]1(C)CC(=O)[C@]2(O)[C@@]3(C)[C@@H](OC(C)=O)CCC(C)(C)[C@@H]3[C@H](O)[C@H](OC(C)=O)[C@@]2(C)O1,inactive: > 100 µM
13,Cc1cc2c(=O)cc(-c3ccc(O)cc3)oc2c(C(=O)O)c1C,inactive: > 100 µM
14,CC1=CC(=O)/C(=C/NC(N)=S)C(=O)O1,inactive: > 100 µM
15,Cc1ccc(S(N)(C(=O)Nc2cccc3ccccc23)[N+](=O)[O-])cc1 (configuration not stated),inactive: > 100 µM
16,CC1=C2C3OC(=O)C(C)C3C(O)C[C@@]2(C)C(=O)CC1 (some centres not stated),inactive: > 100 µM
17,COc1cc([C@@H]2c3cc4c(c(O[C@@H]5O[C@H]6CO[C@@H](C)O[C@H]6[C@H](O)[C@@H]5O)c3C[C@H]3COC(=O)[C@@H]32)OCO4)cc(OC)c1O,inactive: 12.6 µM
18,O=C1C(c2c(O)[nH]c3ccc(F)cc23)=Nc2ccccc21,inactive: > 100 µM
19,Cc1ccc2c(O)cc(-c3cccs3)nc2n1,inactive: 16.3 µM
20,CCCCCCCC/C=C(\Br)C(O)C(Br)Br (configuration not stated),inactive: 31 µM
21,COc1cccc2c1[C@H](OC)[C@]13O[C@@]1(C2=O)[C@H](O)[C@H](C)[C@@](O)(C(=O)[C@@H]1O[C@H]1C)[C@@H]3O,active: 0.149 µM
